{
  "source": "paper PMC5892938",
  "note": "Some of the results follow. At the low end of the ranking the order means little.",
  "data": [
    {"molecular_target": "GST-SBP-SLBP (stem-loop binding protein) (UniProt Q14493)", "experiment": "targeted RNA Bind-n-Seq;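 note: DESeq read counts versus GST-SBP nonspecific binding control pulldown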", "conditions": "RBNS binding buffer: 25 mM Tris pH 7.5, 150 mM KCl, 3 mM MgCl2, 0.1% Tween, 0.5 mg/mL BSA, 1 mM DTT; 27 nM protein, 750 pM RNA pool; temperature not stated; high values mean tight binding", "values": [
      {"sequence": "GGUCACGUCUCAAUCAACUCAUUCUCAGGAGUUUACUCCUGCUUUCUCAACAGCUCGCAGUCAAG", "binding signal (log2 fold change)": -0.049},
      {"sequence": "GGUCACGUCUCAAUCAACUCUACUCCCAGGGAAAGCCCUGGCUAACUCAACAGCUCGCAGUCAAG", "binding signal (log2 fold change)": 0.161},
      {"sequence": "GGUCACGUCUCAAUCAACUCUUCUUCAGGAGUUUUCUCCUGCUAAUUCAACAGCUCGCAGUCAAG", "binding signal (log2 fold change)": 0.0723},
      {"sequence": "GGUCACGUCUCAAUCAACUCAAUCUCCAGGGAAAUCCCUGGCUUUCUCAACAGCUCGCAGUCAAG", "binding signal (log2 fold change)": 0.229},
      {"sequence": "GGUCACGUCUCAAUCAACUCUUCUUCCAGGGAAAACCCUGGUAUUCUCAACAGCUCGCAGUCAAG", "binding signal (log2 fold change)": 0.102},
      {"sequence": "GGUCACGUCUCAAUCAACUCAUCUUCAGGAGUUUUCUCCUGUUAUUUCAACAGCUCGCAGUCAAG", "binding signal (log2 fold change)": 0.247},
      {"sequence": "GGUCACGUCUCAAUCAACUCUUUUUCCAGGGAAAUCCCUGGUUUUCUCAACAGCUCGCAGUCAAG", "binding signal (log2 fold change)": -0.161},
      {"sequence": "GGUCACGUCUCAAUCAACUCUAUUCCCAGGGAAAACCCUGGCUUUCUCAACAGCUCGCAGUCAAG", "binding signal (log2 fold change)": 0.0243},
      {"sequence": "GGUCACGUCUCAAUCAACUCAUGUCCAGGAGUUUCCUCCUGUAAAUUCAACAGCUCGCAGUCAAG", "binding signal (log2 fold change)": 0.0337},
      {"sequence": "GGUCACGUCUCAAUCAACUCCCUCGAGGGGGGGAAAACCCCUUUACCCUCUUAAUCAACAGCUCGCAGUCAAG", "binding signal (log2 fold change)": -0.299},
      {"sequence": "GGUCACGUCUCAAUCAACUCAUUCUCCAGGGAAAACCCUGGUAAUCUCAACAGCUCGCAGUCAAG", "binding signal (log2 fold change)": 0.147},
      {"sequence": "GGUCACGUCUCAAUCAACUCAGUCUCCAGGGAAAUCCCUGGUAUAUUCAACAGCUCGCAGUCAAG", "binding signal (log2 fold change)": -0.0147},
      {"sequence": "GGUCACGUCUCAAUCAACUCAUUCUCAGGAGUUUACUCCUGCUAUCUCAACAGCUCGCAGUCAAG", "binding signal (log2 fold change)": 0.26},
      {"sequence": "GGUCACGUCUCAAUCAACUCUUCCCCCAGGGAAAACCCUGGCUAUGUCAACAGCUCGCAGUCAAG", "binding signal (log2 fold change)": 0.193},
      {"sequence": "GGUCACGUCUCAAUCAACUCUUUCUCCAGGGAAACCCCUGGCAAAUUCAACAGCUCGCAGUCAAG", "binding signal (log2 fold change)": -0.0165},
      {"sequence": "GGUCACGUCUCAAUCAACUCUAUAGAGGGGGGGAAAACCCCUUUACCCUCCAUCUCAACAGCUCGCAGUCAAG", "binding signal (log2 fold change)": -0.206},
      {"sequence": "GGUCACGUCUCAAUCAACUCCUAAGAGGGGGGGAAAACCCCUUUGCCCUCGUAAUCAACAGCUCGCAGUCAAG", "binding signal (log2 fold change)": -0.0596},
      {"sequence": "GGUCACGUCUCAAUCAACUCUUUUCCCAGGGAAACCCCUGGCAAUGUCAACAGCUCGCAGUCAAG", "binding signal (log2 fold change)": 0.116},
      {"sequence": "GGUCACGUCUCAAUCAACUCAUUCCCAGGAGUUUUCUCCUGCAUACUCAACAGCUCGCAGUCAAG", "binding signal (log2 fold change)": 0.168},
      {"sequence": "GGUCACGUCUCAAUCAACUCAUUCCCAGGAGUUUUCUCCUGCAAAUUCAACAGCUCGCAGUCAAG", "binding signal (log2 fold change)": -0.0613},
      {"sequence": "GGUCACGUCUCAAUCAACUCAUUUUCCAGGGAAAACCCUGGUAUUCUCAACAGCUCGCAGUCAAG", "binding signal (log2 fold change)": 0.193},
      {"sequence": "GGUCACGUCUCAAUCAACUCUUCCUCCAGGGAAAGCCCUGGCAUAUUCAACAGCUCGCAGUCAAG", "binding signal (log2 fold change)": 0.127},
      {"sequence": "GGUCACGUCUCAAUCAACUCUAAAGAGGGGGGGAAAACCCCUUUGCCCUCAUAUUCAACAGCUCGCAGUCAAG", "binding signal (log2 fold change)": -0.206},
      {"sequence": "GGUCACGUCUCAAUCAACUCGUUUUCAGGAGUUUACUCCUGCAUUUUCAACAGCUCGCAGUCAAG", "binding signal (log2 fold change)": 0.0292},
      {"sequence": "GGUCACGUCUCAAUCAACUCAGUCUCCAGGGAAACCCCUGGCUAUCUCAACAGCUCGCAGUCAAG", "binding signal (log2 fold change)": 0.207},
      {"sequence": "GGUCACGUCUCAAUCAACUCUACGCCAGGAGUUUUCUCCUGUAUUUUCAACAGCUCGCAGUCAAG", "binding signal (log2 fold change)": -0.0223},
      {"sequence": "GGUCACGUCUCAAUCAACUCUAUCGAGGGGGGGAAAACCCCUUUACCCUCACUUUCAACAGCUCGCAGUCAAG", "binding signal (log2 fold change)": -0.306},
      {"sequence": "GGUCACGUCUCAAUCAACUCUAUCUCCAGGGAAAUCCCUGGCUUUCUCAACAGCUCGCAGUCAAG", "binding signal (log2 fold change)": -0.0107},
      {"sequence": "GGUCACGUCUCAAUCAACUCAACUUCCAGGGAAAACCCUGGUUUAUUCAACAGCUCGCAGUCAAG", "binding signal (log2 fold change)": -0.032},
      {"sequence": "GGUCACGUCUCAAUCAACUCAUCGCCAGGAGUUUUCUCCUGUUUUCUCAACAGCUCGCAGUCAAG", "binding signal (log2 fold change)": 0.0619},
      {"sequence": "GGUCACGUCUCAAUCAACUCUUAAGAGGGGGGGAAAACCCCUUUACCCUCAUACUCAACAGCUCGCAGUCAAG", "binding signal (log2 fold change)": -0.392},
      {"sequence": "GGUCACGUCUCAAUCAACUCAUUCUCAGGAGUUUCCUCCUGCUAAGUCAACAGCUCGCAGUCAAG", "binding signal (log2 fold change)": 0.146},
      {"sequence": "GGUCACGUCUCAAUCAACUCAUUUCCAGGAGUUUGCUCCUGCAUUCUCAACAGCUCGCAGUCAAG", "binding signal (log2 fold change)": 0.0315},
      {"sequence": "GGUCACGUCUCAAUCAACUCAGUCUCAGGAGUUUACUCCUGCAAAUUCAACAGCUCGCAGUCAAG", "binding signal (log2 fold change)": -0.0839},
      {"sequence": "GGUCACGUCUCAAUCAACUCUUCCCCCAGGGAAAUCCCUGGCAAAUUCAACAGCUCGCAGUCAAG", "binding signal (log2 fold change)": -0.0552},
      {"sequence": "GGUCACGUCUCAAUCAACUCUUUAGAGGGGGGGAAAACCCCUUUGCCCUCAUUCUCAACAGCUCGCAGUCAAG", "binding signal (log2 fold change)": -0.217},
      {"sequence": "GGUCACGUCUCAAUCAACUCUAAAGAGGGGGGGAAAACCCCUUUACCCUCCAUAUCAACAGCUCGCAGUCAAG", "binding signal (log2 fold change)": -0.526},
      {"sequence": "GGUCACGUCUCAAUCAACUCUCACGAGGGGGGGAAAACCCCUUUACCCUCUACAUCAACAGCUCGCAGUCAAG", "binding signal (log2 fold change)": 0.123},
      {"sequence": "GGUCACGUCUCAAUCAACUCUAUCCCAGGAGUUUUCUCCUGCUUUUUCAACAGCUCGCAGUCAAG", "binding signal (log2 fold change)": 0.0607},
      {"sequence": "GGUCACGUCUCAAUCAACUCCCUAGAGGGGGGGAAAACCCCUUUACCCUCAAAUUCAACAGCUCGCAGUCAAG", "binding signal (log2 fold change)": 0.137},
      {"sequence": "GGUCACGUCUCAAUCAACUCUACUCCCAGGGAAAACCCUGGUUAUUUCAACAGCUCGCAGUCAAG", "binding signal (log2 fold change)": 0.166},
      {"sequence": "GGUCACGUCUCAAUCAACUCAGUCUCAGGAGUUUGCUCCUGCUUAUUCAACAGCUCGCAGUCAAG", "binding signal (log2 fold change)": -0.0841},
      {"sequence": "GGUCACGUCUCAAUCAACUCAAUGUCAGGAGUUUUCUCCUGUAAAUUCAACAGCUCGCAGUCAAG", "binding signal (log2 fold change)": -0.0312},
      {"sequence": "GGUCACGUCUCAAUCAACUCAACUUCCAGGGAAAUCCCUGGCAAUCUCAACAGCUCGCAGUCAAG", "binding signal (log2 fold change)": 0.126},
      {"sequence": "GGUCACGUCUCAAUCAACUCAGUCCCCAGGGAAACCCCUGGUUUAUUCAACAGCUCGCAGUCAAG", "binding signal (log2 fold change)": -0.284},
      {"sequence": "GGUCACGUCUCAAUCAACUCAUUUCCCAGGGAAAUCCCUGGCUUUCUCAACAGCUCGCAGUCAAG", "binding signal (log2 fold change)": 0.169},
      {"sequence": "GGUCACGUCUCAAUCAACUCAAUCCCCAGGGAAAACCCUGGUUAUCUCAACAGCUCGCAGUCAAG", "binding signal (log2 fold change)": 0.0531}
    ]}
  ]
}
